# Data: the supplement of paper PMC8728848
# This is one part of the list.
# B1: Cohesin-hLangerin (Homo sapiens) (protein)
# chain: LDDLDAVRIKVDTVNAKPGDTVRIPVRFSGIPSKGIANCDFVYSYDPNVLEIIEIEPGDIIVDPNPDKSFDTAVYPDRKIIVFLFAEDSGTGAYAITKDGVFATIVAKVKEGAPNGLSVIKFVEVGGFANNDLVEQKTQFFDGGANVGDTTEPATPTTPVTTPTTTDDLDAASYPRFMGTISDVKTNVQLLKGRVDNISTLDSEIKKNSDGMEAAGVQIQMVNESLGYVRSQFLKLKTSVEKANAQIQILTRSWEEVSTLNAQIPELKSDLEKASALNTKIRALQGSLENMSKLLKRQNDILQVVSQGWKYFKGNFYYFSLIPKTWYSAEQFCVSRNSHLTSVTSESEQEFLYKTAGGLIYWIGLTKAGMEGDWSWVDDTPFNKVQSARFWIPGEPNNAGNNEHCGNIKAPSLQAWNDAPCDKTFLFICKRPYVPSEPHHHHHH
# Assays:
# Assay in all cases: glycan array binding signal (z-score within array); higher = stronger binding
# Settings in all cases: glycan notation: IUPAC condensed, linker removed
# [1] = biological target: Fuc(a1-2)[Gal(a1-3)]Gal(b1-4)GlcNAc(b1-2)Man(a1-3)[Fuc(a1-2)[Gal(a1-3)]Gal(b1-4)GlcNAc(b1-2)Man(a1-6)]Man(b1-4)GlcNAc(b1-4)[Fuc(a1-6)]GlcNAc
# How it was run: (§1)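 The binding signal is a Z-score computed within each array and averaged over linkers. Arrays of the same protein sequence at different concentrations or buffers were also averaged together. Data originate from 3228 arrays in the Consortium for Functional Glycomics database, kept only where the protein sequence was available.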
# [2] = biological target: Fuc(a1-2)[Gal(a1-3)]Gal(b1-4)GlcNAc(b1-3)GalNAc
# How it was run: as §1
# [3] = biological target: Fuc(a1-2)[Gal(a1-3)]Gal(b1-4)GlcNAc(b1-3)[Fuc(a1-2)[Gal(a1-3)]Gal(b1-4)GlcNAc(b1-6)]GalNAc
# How it was run: as §1
# [4] = biological target: Fuc(a1-2)[Gal(a1-3)]Gal(b1-4)GlcNAc(b1-6)GalNAc
# How it was run: as §1
# [5] = biological target: Fuc(a1-2)[Gal(a1-3)]Gal(b1-4)[Fuc(a1-3)]Glc
# How it was run: as §1
# [6] = biological target: Fuc(a1-2)[Gal(a1-3)]Gal(b1-4)[Fuc(a1-3)]GlcNAc
# How it was run: as §1
# [7] = biological target: Fuc(a1-2)[Gal(a1-3)]Gal(b1-4)[Fuc(a1-3)]GlcNAc(b1-3)GalNAc
# How it was run: as §1
# [8] = biological target: Fuc(a1-2)[Gal(a1-4)]Gal(b1-4)GlcNAc
# How it was run: as §1
# [9] = biological target: Fuc(a1-2)[GalNAc(a1-3)]Gal
# How it was run: as §1
# [10] = biological target: Fuc(a1-2)[GalNAc(a1-3)]Gal(b1-3)GalNAc(a1-3)[Fuc(a1-2)]Gal(b1-4)GlcNAc
# How it was run: as §1
# [11] = biological target: Fuc(a1-2)[GalNAc(a1-3)]Gal(b1-3)GalNAc(b1-3)Gal(a1-4)Gal(b1-4)Glc
# How it was run: as §1
# [12] = biological target: Fuc(a1-2)[GalNAc(a1-3)]Gal(b1-3)GlcNAc
# How it was run: as §1
# [13] = biological target: Fuc(a1-2)[GalNAc(a1-3)]Gal(b1-3)GlcNAc(b1-2)Man(a1-3)[Fuc(a1-2)[GalNAc(a1-3)]Gal(b1-3)GlcNAc(b1-2)Man(a1-6)]Man(b1-4)GlcNAc(b1-4)GlcNAc
# How it was run: as §1
# [14] = biological target: Fuc(a1-2)[GalNAc(a1-3)]Gal(b1-3)GlcNAc(b1-2)Man(a1-3)[Fuc(a1-2)[GalNAc(a1-3)]Gal(b1-3)GlcNAc(b1-2)Man(a1-6)]Man(b1-4)GlcNAc(b1-4)[Fuc(a1-6)]GlcNAc
# How it was run: as §1
# [15] = biological target: Fuc(a1-2)[GalNAc(a1-3)]Gal(b1-3)GlcNAc(b1-3)GalNAc
# How it was run: as §1
# [16] = biological target: Fuc(a1-2)[GalNAc(a1-3)]Gal(b1-3)GlcNAc(b1-6)GalNAc
# How it was run: as §1
# [17] = biological target: Fuc(a1-2)[GalNAc(a1-3)]Gal(b1-4)Glc
# How it was run: as §1
# [18] = biological target: Fuc(a1-2)[GalNAc(a1-3)]Gal(b1-4)GlcNAc
# How it was run: as §1
# [19] = biological target: Fuc(a1-2)[GalNAc(a1-3)]Gal(b1-4)GlcNAc(b1-2)Man
# How it was run: as §1
# [20] = biological target: Fuc(a1-2)[GalNAc(a1-3)]Gal(b1-4)GlcNAc(b1-2)Man(a1-3)[Fuc(a1-2)[GalNAc(a1-3)]Gal(b1-4)GlcNAc(b1-2)Man(a1-6)]Man(b1-4)GlcNAc(b1-4)GlcNAc
# How it was run: as §1
# [21] = biological target: Fuc(a1-2)[GalNAc(a1-3)]Gal(b1-4)GlcNAc(b1-2)Man(a1-3)[Fuc(a1-2)[GalNAc(a1-3)]Gal(b1-4)GlcNAc(b1-2)Man(a1-6)]Man(b1-4)GlcNAc(b1-4)[Fuc(a1-6)]GlcNAc
# How it was run: as §1
# [22] = biological target: Fuc(a1-2)[GalNAc(a1-3)]Gal(b1-4)GlcNAc(b1-3)Gal(b1-4)GlcNAc
# How it was run: as §1
# [23] = biological target: Fuc(a1-2)[GalNAc(a1-3)]Gal(b1-4)GlcNAc(b1-3)Gal(b1-4)GlcNAc(b1-3)Gal(b1-4)GlcNAc
# How it was run: as §1
# [24] = biological target: Fuc(a1-2)[GalNAc(a1-3)]Gal(b1-4)GlcNAc(b1-3)GalNAc
# How it was run: as §1
# [25] = biological target: Fuc(a1-2)[GalNAc(a1-3)]Gal(b1-4)GlcNAc(b1-3)[Fuc(a1-2)[GalNAc(a1-3)]Gal(b1-4)GlcNAc(b1-6)]GalNAc
# How it was run: as §1
# [26] = biological target: Fuc(a1-2)[GalNAc(a1-3)]Gal(b1-4)GlcNAc(b1-6)GalNAc
# How it was run: as §1
# [27] = biological target: Fuc(a1-2)[GalNAc(a1-3)]Gal(b1-4)[Fuc(a1-3)]GlcNAc
# How it was run: as §1
# [28] = biological target: Fuc(a1-2)[GalNAc(a1-3)]Gal(b1-4)[Fuc(a1-3)]GlcNAc(b1-3)GalNAc
# How it was run: as §1
# [29] = biological target: Fuc(a1-2)[GalNAc(a1-4)]Gal(b1-4)GlcNAc
# How it was run: as §1
# [30] = biological target: Fuc(a1-2)[GalNAc(b1-3)]Gal
# How it was run: as §1
binder,measurement,setting,value
B1,glycan array binding signal (z-score),[1],3.4
same,glycan array binding signal (z-score),[2],-0.401
same,glycan array binding signal (z-score),[3],1.3
same,glycan array binding signal (z-score),[4],-0.388
same,glycan array binding signal (z-score),[5],-0.413
same,glycan array binding signal (z-score),[6],-0.369
same,glycan array binding signal (z-score),[7],-0.413
same,glycan array binding signal (z-score),[8],-0.301
same,glycan array binding signal (z-score),[9],0.937
same,glycan array binding signal (z-score),[10],-0.411
same,glycan array binding signal (z-score),[11],-0.26
same,glycan array binding signal (z-score),[12],-0.259
same,glycan array binding signal (z-score),[13],0.326
same,glycan array binding signal (z-score),[14],2.27
same,glycan array binding signal (z-score),[15],-0.219
same,glycan array binding signal (z-score),[16],-0.272
same,glycan array binding signal (z-score),[17],-0.427
same,glycan array binding signal (z-score),[18],-0.42
same,glycan array binding signal (z-score),[19],-0.405
same,glycan array binding signal (z-score),[20],-0.293
same,glycan array binding signal (z-score),[21],3.72
same,glycan array binding signal (z-score),[22],-0.419
same,glycan array binding signal (z-score),[23],0.123
same,glycan array binding signal (z-score),[24],-0.406
same,glycan array binding signal (z-score),[25],-0.362
same,glycan array binding signal (z-score),[26],-0.215
same,glycan array binding signal (z-score),[27],-0.305
same,glycan array binding signal (z-score),[28],-0.388
same,glycan array binding signal (z-score),[29],-0.271
same,glycan array binding signal (z-score),[30],-0.185
